In PubChem BioAssay AID1461 (National Center for Advancing Translational Sciences (NCATS), 2008):
In all, about 220,000 compounds went through this assay and about 2,300 (1%) were called active. Inconclusive results, whose numbers are uncertain, are shown with a selection of clear calls. Calls follow the shape of the dose curve; as a rule, active = well fitted inhibition curve with a large enough effect; inconclusive = small, poorly fitted or top-dose-only effect, or effect the other way; inactive = no such curve, though single readings can be large or run the other way. No potency is given beside an inconclusive call; the fits are too rough.

molecular target: Neuropeptide S receptor (Homo sapiens) (UniProt Q6W5P4); assay: qHTS Assay for Antagonists of the Neuropeptide S Receptor: cAMP Signal Transduction; conditions: CHO-NPSR cells, cAMP TR-FRET, antagonist mode; activity change, negative = inhibition: at 38.3 µM (top of the series) unless noted; also: nearly all actives have a fitted effect of over 50% in size
% is scaled to controls: 0 for no effect and ±100 for the full control effect; potency is read from the fitted curve at half-maximal effect; tags tell the direction and shape of the fitted curve.

Chain of UniProt Q6W5P4 (Q6W5P4 whole entry, looked up): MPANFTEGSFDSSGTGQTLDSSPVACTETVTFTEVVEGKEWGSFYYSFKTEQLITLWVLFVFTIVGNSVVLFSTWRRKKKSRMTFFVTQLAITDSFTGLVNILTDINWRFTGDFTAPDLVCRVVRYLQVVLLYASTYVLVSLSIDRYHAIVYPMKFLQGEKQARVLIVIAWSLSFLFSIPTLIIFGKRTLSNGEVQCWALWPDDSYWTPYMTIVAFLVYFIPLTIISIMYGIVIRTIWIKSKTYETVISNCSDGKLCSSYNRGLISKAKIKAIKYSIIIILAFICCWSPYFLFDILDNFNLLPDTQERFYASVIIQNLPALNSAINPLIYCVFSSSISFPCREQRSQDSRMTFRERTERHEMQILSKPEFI

Structure (SMILES) | Potency | activity change, negative = inhibition
COc1ccc(/C=N/N=C2\SCC(=O)N2c2c(C)n(C)n(-c3ccccc3)c2=O)cc1OC | inactive | –
CCCCCCCCOC(=O)c1c(CSC(=N)N)n(C)c2cc(Br)c(OC(C)=O)cc12 | inconclusive [inhibitor, single point] | –
COC(=O)CSCC(=O)Nc1cc2c(cc1C(C)=O)OCO2 | inconclusive [inhibitor, full curve] | –
Fc1ccc(-c2n[nH]c(=S)n2-c2ccc3c(c2)OCCO3)cc1 | inactive | –
CN1CC(c2ccccc2Cl)C2(COc3ccccc3C2=O)C12C(=O)Nc1ccccc12 (centres undefined) | inconclusive [inhibitor, single point] | –
Nc1nc(Nc2ccc(Cl)cc2)nc(NCc2ccco2)c1[N+](=O)[O-] | inconclusive [inhibitor, single point] | –
O=C(NCc1ccccc1)C(c1ccc(O)cc1)N(C(=O)Cn1nnc(-c2cccs2)n1)c1ccc2c(c1)OCCO2 (centres undefined) | inactive | –
Cc1sc2nc(CN(Cc3cccs3)C(=O)NC3CCCCC3)[nH]c(=O)c2c1C | inconclusive [inhibitor, single point] | –
C#CCOCCOCCOCCNc1nc(N2CCN(C(=O)Cn3cc(CC(C)O)nn3)CC2)nc(N2CCN(C(=O)[C@H](C)n3cc(CCCN=C(N)N)nn3)CC2)n1 (some centres undefined) | inactive | –
CCOC(=O)N1CCC2(CC1)C(C#N)=C(N)OC1=C2C(=O)CC(C)C1 (centres undefined) | inactive | –
COc1ccc(CC(=O)n2c(CC#N)nc3ccccc32)cc1OC | inconclusive [inhibitor, single point] | –
O=C1C(Cc2ccccc2)C(c2ccccc2)N1c1ccccc1 (centres undefined) | inconclusive [inhibitor, partial curve] | –
CCOC(=O)c1cnc2ccc(Br)cc2c1NCC(C)O (centres undefined) | inconclusive [inhibitor, single point] | –
Clc1ccc(CSc2ccc(-c3ccco3)nn2)cc1 | inactive | –
CN(C)CCN1C(=O)C(O)=C(C(=O)c2cc3ccccc3o2)C1c1cccc(Br)c1 (centres undefined) | inconclusive [activator, partial curve] | –
CC(C)OC(=O)c1cc2c(ccn2C)n1CC(=O)N1CCC(Cc2ccccc2)CC1 | inconclusive [inhibitor, partial curve] | –
COC(=O)C1=C(C)N(C)C(C)=C(C(=O)OC)C1c1cccc(Br)c1 | inconclusive [inhibitor, single point] | –
N/C(=N\S(=O)(=O)c1cc(C(F)(F)F)cc(C(F)(F)F)c1)c1cccs1 | inconclusive [activator, single point] | –
COc1ccc2c(c1)CCc1c(C(=O)NC3CCCCC3)noc1-2 | inconclusive [inhibitor, single point] | –
CC(C)Oc1cccc(C(=O)C2CCCN(Cc3cccn3-c3cccnc3)C2)c1 (centres undefined) | inconclusive [inhibitor, single point] | –
CCNc1nc(NC(C)C)nc(N(C#N)CCOc2ccccc2)n1 | inconclusive [inhibitor, single point] | –
N#Cc1cc2ccccc2nc1SCC(=O)Nc1ccccc1N1CCOCC1 | inconclusive [inhibitor, single point] | –
Cc1nc(S/C(=C/c2ccc(-c3ccc(C(=O)O)cc3)o2)C(=O)O)n[nH]1 | – | inactive: -1.51% [at 7.67 µM]

Structure (SMILES) | Potency | activity change, negative = inhibition
CCOC(=O)C1=C(C)N=C2c3ccccc3C(=O)C2C1c1ccc(Br)cc1 (centres undefined) | inconclusive [inhibitor, partial curve] | –
O=S(=O)(c1ccc(C2CCCCC2)cc1)N1CCN(c2ncccn2)CC1 | inconclusive [inhibitor, single point] | –
Cc1cccc(NC(=O)C23CCC(C)(C2Br)C3(C)C)c1 (centres undefined) | inconclusive [inhibitor, single point] | –
Cc1cccc(N2C(=O)CN(Cc3sccc3C)C2=S)c1 | inactive | –
CC12CC3CC(C)(C1)CC(N)(C3)C2 | inconclusive [inhibitor, single point] | –
O=C(CSc1nc2c(c(=O)[nH]1)CCC2)Nc1cccc(Cl)c1 | inactive | –
Cc1sc2nc3n(c(=O)c2c1C)Cc1ccccc1-3 | inconclusive [inhibitor, full curve, poor fit] | –
Cc1c(NC(=O)/C(=C/c2cccs2)c2cccs2)c(=O)n(-c2ccccc2)n1C | inconclusive [activator, partial curve, poor fit] | –
C=CCOC(=O)C1=C[C@H](c2ccc(Br)cc2)[C@@H](CCCO)[C@H](OCC)O1 | inconclusive [activator, partial curve] | –
COc1ccc(S(=O)(=O)Nc2ccc(F)c(Cl)c2)cc1OC | inconclusive [inhibitor, single point] | –
CCN(CC)S(=O)(=O)c1ccc(Cl)c(C(=O)N2CCc3ccccc32)c1 | inactive | –
CC(=O)Nc1ccc(Nc2c3ccccc3nc3ccccc23)cc1 | inconclusive [inhibitor, single point] | –
CCCSC1=C(C#N)C(c2cccnc2)C(C(=O)OCC)=C(c2ccccc2)N1 (centres undefined) | inconclusive [inhibitor, partial curve] | –
COc1ccc(-c2c[n+]3c4n2CCCCC4=C(c2ccc(Br)cc2)C3)cc1 | inconclusive [inhibitor, single point] | –
CCN(CCCNC(=O)C1CCN(S(=O)(=O)N2CCC3(CC2)OCCO3)CC1)c1ccccc1 | inconclusive [inhibitor, single point] | –
CCCSc1nc(-n2ncc(C#N)c2N)c2c3c(sc2n1)CCC(C)C3 (centres undefined) | inconclusive [inhibitor, single point] | –
O=C(CCC1CCCCC1)NNC(=O)NC12CC3CC(CC(C3)C1)C2 | inconclusive [inhibitor, partial curve, poor fit] | –
O=C(Oc1ccc(N(Cc2cccs2)C2=NS(=O)(=O)c3ccccc32)cc1)c1ccc(Cl)cc1 | inconclusive [activator, full curve, poor fit] | –
O=C(Cc1ccccc1)NCCSCc1ccc(Cl)cc1 | inactive | –
CCn1cc(C(=O)NCc2ccco2)c(=O)c2cc(S(=O)(=O)N3CCCCCC3)ccc21 | inconclusive [inhibitor, partial curve, poor fit] | –
c1ccc(-c2noc(CN3CCN(C(c4ccccc4)c4ccccc4)CC3)n2)cc1 | inconclusive [inhibitor, single point] | –
COc1cc(C2=NOC(C(=O)NCc3ccc(F)cc3)C2)cc(OC)c1OC (centres undefined) | inconclusive [activator, full curve] | –
COC(=O)C1C(=O)c2c([nH]c(C(=O)OCC3CCCO3)c2C)CC1C (centres undefined) | active: 12.6 µM | –

Structure (SMILES) | Potency | activity change, negative = inhibition
CN1CCN(Cc2ccc(OCc3ccccc3)cc2)CC1 | inactive | –
COc1cccc(-c2nn(C)c3sc(C(=O)NCc4ccc(C)o4)cc23)c1 | inconclusive [inhibitor, partial curve] | –
CCOC(=O)c1cc(-c2ccccc2)n(CC(=O)O)c1C | inactive | –
CCc1nnc(NC(=O)CSc2nnc(-c3ccccc3NC(=O)c3ccccc3)o2)s1 | inconclusive [inhibitor, single point] | –
CC(C)Nc1ccc(Nc2ccnc3cc4ccccc4cc23)cc1 | inconclusive [activator, partial curve] | –
O=C(N/N=C/c1ccccc1)c1c(O)c2ccccc2[nH]c1=O | inconclusive [inhibitor, single point] | –
CC1CN(CC(O)COC(c2ccc(Cl)cc2)c2ccc(Cl)cc2)CC(C)O1 (centres undefined) | inconclusive [inhibitor, partial curve, poor fit] | –
O=C(Cn1nnc(-c2ccc(CN3CCOCC3)cc2)n1)NC1CCCCC1 | inconclusive [inhibitor, single point] | –
CC(C)C1Oc2ccccc2N(CC(=O)N(Cc2ccccn2)C2CC2)C1=O (centres undefined) | inactive | –
CCOc1ccc(N2C(=O)CC(N(Cc3ccco3)C(C)=O)C2=O)cc1 (centres undefined) | inactive | –
O=C(Cn1ncc2c(=O)oc3ccccc3c21)N1CCC(N2CCCCC2)CC1 | inconclusive [inhibitor, single point] | –
Cc1cc(C)cc(NC2=NCC(=O)N2Cc2ccccc2)c1 | inactive | –
c1ccc(Nc2nc(N3CCOCC3)nc(N3CCOCC3)n2)cc1 | inactive | –
S=C(Nc1ccc2nccnc2c1)N1CCCC1 | inactive | –
CCN(CC)S(=O)(=O)c1cccc(-c2nnc(SCC(=O)NC)n2CCc2ccccc2)c1 | inconclusive [inhibitor, single point] | –
Cc1ccc(C2=NOC(=O)/C2=C\C=C\c2ccccc2)cc1 | active: 10 µM | –
CN(C)c1cc[n+](Cc2c(Cl)cccc2Cl)cc1 | inactive | –
CCOC(=O)CNC(=O)c1ccc2[nH]c3c(c2c1)CCCC3 | inactive | –
CCN1C(=O)C(O)(CC(=O)c2ccccn2)c2ccccc21 (centres undefined) | inconclusive [inhibitor, single point] | –
O=C(Nc1ccc(O)cc1C(=O)O)c1ccc2c(c1)C(=O)N(Cc1ccco1)C2=O | inactive | –
O=C(CN1CCN(Cc2ccc3c(c2)OCO3)CC1)Nc1ccc2c(c1)OCCO2 | inactive | –
CCOC(=O)C1=C(C)OC(N)=C(C#N)C1c1cc(F)ccc1F (centres undefined) | inconclusive [inhibitor, single point] | –
O=C(/C=C1\C(=O)Nc2ccccc21)/C=C1\C(=O)Nc2ccccc21 | inconclusive [activator, single point] | –
